{"source": "paper PMC4336329", "about": "(PLoS ONE, 2015)", "note": "The whole screen tested about 310,000 compounds, of which about 2,200 (0.71%) showed an effect of 50% or more. Effects have a minus sign here. This is one part of the list."}
{"molecular_target": "human ether-à-go-go-related gene (hERG) potassium channel (human, UniProt Q12809)", "sequence (Q12809 whole entry, looked up)": "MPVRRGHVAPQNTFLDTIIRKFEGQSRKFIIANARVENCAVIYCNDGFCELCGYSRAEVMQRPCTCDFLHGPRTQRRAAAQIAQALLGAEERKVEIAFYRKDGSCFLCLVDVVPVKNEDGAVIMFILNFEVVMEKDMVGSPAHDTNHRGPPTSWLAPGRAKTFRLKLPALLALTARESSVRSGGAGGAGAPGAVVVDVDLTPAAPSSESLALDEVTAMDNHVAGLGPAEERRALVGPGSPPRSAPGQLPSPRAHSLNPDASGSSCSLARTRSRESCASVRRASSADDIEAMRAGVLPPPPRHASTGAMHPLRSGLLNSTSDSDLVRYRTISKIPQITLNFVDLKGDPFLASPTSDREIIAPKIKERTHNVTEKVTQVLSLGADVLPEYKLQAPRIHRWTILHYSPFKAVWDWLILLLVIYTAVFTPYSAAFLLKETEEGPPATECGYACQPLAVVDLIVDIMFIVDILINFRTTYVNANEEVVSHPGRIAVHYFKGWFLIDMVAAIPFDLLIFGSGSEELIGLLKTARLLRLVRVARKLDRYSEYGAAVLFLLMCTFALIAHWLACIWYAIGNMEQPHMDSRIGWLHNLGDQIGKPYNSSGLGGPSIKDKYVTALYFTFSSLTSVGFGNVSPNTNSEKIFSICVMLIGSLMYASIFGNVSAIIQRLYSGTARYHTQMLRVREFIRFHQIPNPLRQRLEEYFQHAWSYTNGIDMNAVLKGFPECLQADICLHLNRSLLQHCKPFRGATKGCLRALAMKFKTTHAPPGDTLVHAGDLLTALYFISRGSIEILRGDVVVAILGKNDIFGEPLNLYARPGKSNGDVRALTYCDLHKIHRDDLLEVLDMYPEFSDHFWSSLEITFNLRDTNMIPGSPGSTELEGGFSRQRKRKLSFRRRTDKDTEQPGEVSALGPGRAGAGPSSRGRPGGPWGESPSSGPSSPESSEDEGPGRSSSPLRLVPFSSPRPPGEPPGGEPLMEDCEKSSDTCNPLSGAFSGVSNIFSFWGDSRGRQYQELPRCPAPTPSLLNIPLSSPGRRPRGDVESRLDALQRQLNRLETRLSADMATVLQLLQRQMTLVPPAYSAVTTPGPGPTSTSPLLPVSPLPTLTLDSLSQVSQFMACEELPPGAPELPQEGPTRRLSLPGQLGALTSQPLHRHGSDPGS", "test": "primary screen, population patch clamp on CHO cells stably expressing hERG", "units": {"hERG current change (%, negative = inhibition) at 1uM": "%"}}
{"compound": "CCCNS(=O)(=O)c1ccc(OCC(=O)N2CCN(Cc3ccccc3)CC2)cc1", "hERG current change (%, negative = inhibition) at 1uM": -3.97}
{"compound": "CC(C)C[C@@H](C)C(=O)N(Cc1ccccc1)c1ccccc1", "hERG current change (%, negative = inhibition) at 1uM": 15.2}
{"compound": "O=C(O)c1ccc(NC(=O)c2cccc(C(=O)Nc3ccc(C(=O)O)cc3)n2)cc1", "hERG current change (%, negative = inhibition) at 1uM": 8.46}
{"compound": "CCCn1nnnc1NCc1cc(Br)ccc1OC", "hERG current change (%, negative = inhibition) at 1uM": 12.5}
{"compound": "CC(C)CCNC(=O)C(c1ccncc1)N(CC1CCCO1)C(=O)Cn1nnc(-c2ccc(F)cc2)n1", "note": "(stereo not shown)", "hERG current change (%, negative = inhibition) at 1uM": -18.8}
{"compound": "Cc1ccc(N=Cc2c(C)[nH]n(-c3ccccc3)c2=O)nc1", "hERG current change (%, negative = inhibition) at 1uM": 5.06}
{"compound": "Cc1ccc(NC(=O)c2cccc3cccnc23)cc1", "hERG current change (%, negative = inhibition) at 1uM": 9.44}
{"compound": "CCOC(=O)NNc1ccc2nonc2c1[N+](=O)[O-]", "hERG current change (%, negative = inhibition) at 1uM": 6.83}
{"compound": "CCC(N=c1cc(-c2ccc(OC)c(OC)c2)oc2ccc(C)cc12)C(=O)O", "note": "(stereo not shown)", "hERG current change (%, negative = inhibition) at 1uM": 2.46}
{"compound": "COc1ccc([C@H]2CC(=O)C=C(c3ccc(Cl)c(C(F)(F)F)c3)C2)cc1", "hERG current change (%, negative = inhibition) at 1uM": 1.49}
{"compound": "Cc1ccc(F)cc1S(=O)(=O)NCc1ccc(N2CCN(C)CC2)cc1", "hERG current change (%, negative = inhibition) at 1uM": 6.76}
{"compound": "CCCn1nc(C(=O)N2CC(=O)Nc3ccccc32)c2ccccc2c1=O", "hERG current change (%, negative = inhibition) at 1uM": 3.75}
{"compound": "CC(=O)c1ccc(OCC(=O)NCc2ccc(F)cc2)cc1", "hERG current change (%, negative = inhibition) at 1uM": 8.88}
{"compound": "CCN(CC)CCCNC(=O)CCC(=O)NNc1nc2ccccc2c2nc(C)nn12", "hERG current change (%, negative = inhibition) at 1uM": 9.18}
{"compound": "Cc1ccc(N(CC(=O)NCCSc2nc3ccccc3s2)S(=O)(=O)c2ccccc2)c(C)c1", "hERG current change (%, negative = inhibition) at 1uM": -3.12}
{"compound": "COC(=O)C(=O)/C=C(\\O)c1c(C)cc(C)cc1C", "hERG current change (%, negative = inhibition) at 1uM": 17.3}
{"compound": "S=C(NCCNC(=S)Nc1ccccc1)Nc1ccccc1", "hERG current change (%, negative = inhibition) at 1uM": 10.4}
{"compound": "COCc1cc(C)nc(SCC(=O)Nc2ccccc2C)c1C#N", "hERG current change (%, negative = inhibition) at 1uM": 4.16}
{"compound": "OCCn1ccc(-c2ccccc2OCc2ccc(F)cc2)n1", "hERG current change (%, negative = inhibition) at 1uM": 11.3}
{"compound": "CC1CN(S(=O)(=O)c2cccc(C(=O)OC(C)C(=O)NC3CCCCC3C)c2)CC(C)O1", "note": "(stereo not shown)", "hERG current change (%, negative = inhibition) at 1uM": -7.84}
{"compound": "CCN1CCN(CCCNC(=O)CCC(=O)N2CCOc3ccc(Cl)cc32)CC1", "hERG current change (%, negative = inhibition) at 1uM": 6.48}
{"compound": "CCCCC1=NN(C(=O)c2ccco2)C(O)(C(F)(F)F)C1", "note": "(stereo not shown)", "hERG current change (%, negative = inhibition) at 1uM": 5.61}
{"compound": "OCCN1CCN(C(=S)Nc2ccc(Oc3ccccc3)cc2)CC1", "hERG current change (%, negative = inhibition) at 1uM": -3.32}
{"compound": "CCOc1cc(/C=N/NC(=O)c2ccc(NC(=O)C3CC3)cc2)ccc1O", "hERG current change (%, negative = inhibition) at 1uM": 7.37}
{"compound": "CC(C)=CCC/C(C)=C/Cc1c(O)ccc(C(=O)/C=C/c2ccc(O)cc2)c1O", "hERG current change (%, negative = inhibition) at 1uM": 9.68}
{"compound": "CN(NC(=O)C1CC(=O)N(c2ccccc2)C1)C1=NS(=O)(=O)c2ccccc21", "note": "(stereo not shown)", "hERG current change (%, negative = inhibition) at 1uM": 9.36}
{"compound": "CCCn1c(=NC(=O)CCS(=O)(=O)c2ccccc2)sc2cc(S(N)(=O)=O)ccc21", "hERG current change (%, negative = inhibition) at 1uM": 3.12}
{"compound": "O=c1oc2ccccc2nc1/C=C(O)/C=C\\c1ccccc1", "hERG current change (%, negative = inhibition) at 1uM": 16.2}
{"compound": "CCn1ncc(C(=O)Nc2cc(C)on2)c1C", "hERG current change (%, negative = inhibition) at 1uM": 9.62}
{"compound": "CCOC(=O)c1c(NC(=O)CSc2nnc(CNc3ccc(Cl)cc3)o2)sc(C)c1C", "hERG current change (%, negative = inhibition) at 1uM": 19}
{"compound": "CCOC(=O)c1sc2nc(CN3CCN(c4cccc(C(F)(F)F)c4)CC3)[nH]c(=O)c2c1C", "hERG current change (%, negative = inhibition) at 1uM": 4.4}
{"compound": "Cc1cc(C)c2c(CN3CCCCC3)cc(=O)oc2c1", "hERG current change (%, negative = inhibition) at 1uM": 16.1}
{"compound": "C=CCn1c(CCNC(=O)c2ccccc2F)nnc1SCC(=O)Nc1ccccc1F", "hERG current change (%, negative = inhibition) at 1uM": 13.7}
{"compound": "CC(Oc1ccc(F)cc1)C(=O)N(Cc1ccccc1)c1c(N)n(Cc2ccccc2)c(=O)[nH]c1=O", "note": "(stereo not shown)", "hERG current change (%, negative = inhibition) at 1uM": 2.22}
{"compound": "N#Cc1nc(COc2ccc(F)cc2)oc1N1CCCC1", "hERG current change (%, negative = inhibition) at 1uM": -3.37}
{"compound": "CN1/C(=C\\C=Nc2cc(S(=O)(=O)N3CCOCC3)ccc2N2CCOCC2)C(C)(C)c2ccccc21", "hERG current change (%, negative = inhibition) at 1uM": -49.1}
{"compound": "CCCn1c(N)c(Sc2ccc(Cl)cc2)c(=O)n(CCC)c1=O", "hERG current change (%, negative = inhibition) at 1uM": 13.8}
{"compound": "Cc1ccc(-c2cc(C(=O)OCC(=O)N(C)C3CCS(=O)(=O)C3)c3ccccc3n2)o1", "note": "(stereo not shown)", "hERG current change (%, negative = inhibition) at 1uM": 7.38}
{"compound": "CCc1ccc(N2C(=O)CC(=O)NC2=O)cc1", "hERG current change (%, negative = inhibition) at 1uM": 10.2}
{"compound": "Cc1cccc(N2CCN(C(=O)c3cccc(S(=O)(=O)N4CCc5ccccc5C4)c3)CC2C)c1", "note": "(stereo not shown)", "hERG current change (%, negative = inhibition) at 1uM": 13.5}
{"compound": "CCc1ccc(NC(=O)C2CCN(S(=O)(=O)c3c(C)noc3C)CC2)cc1", "hERG current change (%, negative = inhibition) at 1uM": 14.4}
{"compound": "Cc1ccc(NC(=O)C(C)Sc2nnc(C)n2C2CC2)cc1S(=O)(=O)N1CCOCC1", "note": "(stereo not shown)", "hERG current change (%, negative = inhibition) at 1uM": 8.85}
{"compound": "O=C1CC(N2CCC(c3nc4ccccc4o3)CC2)C(=O)N1", "note": "(stereo not shown)", "hERG current change (%, negative = inhibition) at 1uM": 4.96}
